The full ranking holds about 33,000 sequences; the median of “E-score (dimensionless, -0.5 to 0.5)” is about -0.058, and the highest 2% start at about 0.35. The list shows a part of the results.
Tested on: MvaT
Assay: PBM 8-mer E-score (mean of HK and ME arrays) (E-score (dimensionless, -0.5 to 0.5)); higher = stronger relative binding preference; most listed sequences are background and not binding sites
Procedure, shortened: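 Full-length P. aeruginosa MvaT, with glutathione S-transferase fused to its N-terminus (cloned into pTH6838 by isothermal assembly), was tested by protein binding microarray using a previously described protocol. Two universal double-stranded 60-mer arrays (ME and HK) were used, each with a constant 25-mer primer region and a variable 35-mer region covering all 8-mers. The rank-based 8-mer E-score (-0.5 to 0.5) is the mean of the two arrays, parsed with a custom Python script.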

Sequence	PBM 8-mer E-score
AGTGTCTC	-0.00692
CCGTTTAA	0.246
ACCAGTTA	0.128
CGCTGTCA	-0.157
GCTGCCAA	-0.0483
ATATGGCA	0.104
CACCCACG	-0.143
GATGTTGC	0.0251
ACAGACTC	-0.155
CACACAGG	-0.06
GTTCTTCA	0.0611
GTGTGTGA	0.0621
ATGGCAAC	-0.118
GAATGGTA	0.105
AAATCGTA	0.242
AGTGTCAG	0.0404
ACTCCATC	-0.0437
AAGTTAGG	0.28
ACTCGTCA	-0.0773
CTTAGGGA	-0.206
CCCCAACG	-0.245
CGAGTAAC	0.103
ACGTGCAT	0.055
CTAGCACA	-0.0407
TTCGACAA	0.124

Sequence	PBM 8-mer E-score
ACTTCCCC	-0.0927
CAGCACAC	-0.145
ACAACAAG	0.138
GGACCCTA	-0.35
GCTGCGGA	-0.269
GTGTATCA	0.0684
CGCCGCCG	-0.158
ATCCAAAG	0.0454
AAGGGGGG	-0.344
ACTAGGGC	-0.0678
CAATCGTA	-0.0723
CACAGCGC	-0.214
GTCCTAAC	0.0874
AAAATACG	0.184
CAATTTCA	0.274
CGGTCTAG	-0.106
GGAGGGCA	-0.309
TACTGGAA	0.0858
ATGGATGC	-0.0685
CAGTACTG	0.178
ATTAACCG	0.133
GACTCTAC	-0.0621
AGACCCTC	-0.3
CCCTTAAC	-0.0248
ATCACTTC	-0.0393

Sequence	PBM 8-mer E-score
CATTCACG	-0.231
GGTGTGGA	-0.0873
GGACCTAA	-0.0894
CGTGGAAG	-0.142
CGCCTTAA	0.104
GGGGGACA	-0.175
CGCCGTGA	-0.208
CACGGGGC	-0.308
AGAGGTCA	-0.266
CGCCATGC	-0.26
GGGTAACA	0.134
CACGCGTC	-0.0566
CCTAGTAC	-0.143
CTGCACCA	0.0109
CCAGGCAA	-0.103
GTGGTGAA	0.0236
TGCAACCA	-0.00824
CCTGGACA	-0.213
CTCATGCC	-0.304
ACGACGGG	-0.146
CTTTTGTA	0.198
AGCGAGAC	-0.104
GGTTATCA	0.155
AACTTTGT	0.257
CTTCTGGC	-0.158

Sequence	PBM 8-mer E-score
ATTCCCCA	-0.0441
CAGTAACC	-0.0434
CACGGGCA	-0.18
CATTGAGA	-0.108
GGATTCCC	-0.207
AGCAAACA	0.0165
CAGCGTCA	-0.176
CCAGGTCA	-0.141
GGGTTAAC	0.101
CCTCTTAC	-0.199
TGGCTCAA	0.0143
AATCTGAT	0.13
CATTGCGA	0.0384
AGTTCCTG	-0.0781
CGTTCAAA	0.0772
AACCATTG	-0.0493
ATCCTTGC	-0.157
CAGAATGA	0.0253
GAAATGAA	0.17
CCAGAACC	-0.0994
CCAAAGCA	-0.197
AATTACCC	0.241
CGACGAAG	-0.171
CTATAGAC	-0.0011
GTGTAGAA	-0.0558

Sequence	PBM 8-mer E-score
AGCTTGGG	-0.149
GGTTTGCA	0.103
CCCTAGCA	-0.151
GCTCTGCC	-0.371
ACTACCTA	0.00906
CCCGAAGA	-0.116
CCAAACGA	0.00171
ATGGGCAG	-0.044
GCATCCGA	-0.257
AGTCGACC	-0.128
TACGGCCA	-0.0792
GCGAGAAC	-0.0686
ACTTAGCT	0.112
ATCTGTAA	0.165
AACTAACG	0.265
ACCTGTCT	-0.217
ACAGCACA	-0.145
CGGCTTTA	-0.111
GCCCCGCA	-0.208
ACACCCCG	-0.143
GCCTAGGA	-0.264
CAATTGAG	0.0707
CTGCTTGC	-0.172
ATCTATCG	-0.126
ATAACTGC	0.286

Sequence	PBM 8-mer E-score
AGCAAGTC	-0.0541
ACGGAGCT	-0.247
ATTTTCTG	0.031
AAGCCCCA	-0.191
CAAGAGAA	-0.0706
ACGACGTC	-0.145
CGTACTGA	-0.132
CGGACTGA	-0.29
GTAACACA	0.179
AACAGTAG	0.0539
CGCCCCTA	-0.147
AAAGTCGC	0.107
AATCAGAG	-0.144
GGACTAAA	0.0564
CGATCGGC	-0.116
CACACCGC	-0.0177
AACATAGG	0.125
TAAACTGA	0.205
AGTAAGAG	-0.0127
ACGTCGGC	-0.331
CCTCCAAA	-0.246
GCGTCACA	-0.0519
ACCTATTC	-0.14
AAAGGCTA	-0.0155
ACCGCACA	-0.0584

Sequence	PBM 8-mer E-score
AAGTCCGG	-0.181
GATTCTAA	0.108
AAATCGGA	-0.169
GTCATTGA	0.0278
CCTTTGCA	-0.118
GCTAAGTA	0.0978
CCGTATTC	0.118
AGCTGACA	-0.2
AGCGGCCT	-0.12
AGTTGTAG	0.137
GCTGCGCA	-0.181
ACGCTCGA	-0.106
ACAAGGGA	-0.117
TGTGAACA	0.00407
AATTATGG	0.285
TGGTCAAA	0.00317
CCAGCCCC	-0.231
GTGTTGGA	-0.0408
CACCTTAA	-0.0188
CGGGTCAA	-0.218
CATCGTAC	-0.0572
GTCGACAC	-0.0976
TACGTAAA	0.178
ACATCCCA	-0.00783
CCGTTAGG	-0.212

Sequence	PBM 8-mer E-score
AGGCCAAT	-0.0229
AGCTAACA	-0.075
CAATAGAC	0.0182
ATCCCTAC	-0.0788
GAGAGGGA	-0.253
AGGCGAAC	-0.0175
GAGAAGCA	-0.153
CTAATAAA	0.349
AACTAAGG	0.235
CGACCCTC	-0.228
GGCTTTGA	-0.0706
AAGGCGTG	-0.156
GACGCCCA	-0.248
CCCGTAGA	-0.174
ACCACGGT	0.0026
ACAATCGC	-0.0204
AGGTCTAA	0.0157
ACATGCCC	-0.0526
AAAATACT	0.272
CAAGTCCG	-0.103
AAATATGT	0.348
CCCACCAG	-0.203
ATGAGTCA	0.00927
ATATTCAG	0.254
GCACCCCA	-0.183

Sequence	PBM 8-mer E-score
ATGAATTG	0.099
GTCAGCGA	-0.0175
AATCAGGG	-0.058
ACGGGACG	-0.256
AGGACGAC	-0.19
CATACGCA	-0.0924
CACGGCCG	-0.25
GATTTTGA	-0.0219
AATTTATG	0.273
TATATAAA	0.47
ACCTCACC	-0.0474
CATTCTCA	0.0311
ACTCATGA	-0.0138
GTTGATGA	0.0373
CCAATGGG	-0.204
AGATTACG	0.0614
TTTCCAAA	0.213
TATAATAA	0.477
AGACCTTA	-0.117
